The full ranking holds about 13,000 compounds; the median of “IFI” is about 4, and the highest 2% start at about 17. Some of the results follow.
Assay: GSK_TCMDC: Inhibition Frequency Index (IFI). The number of non-kinase HTS assays where a compound showed > 50 % inhibition, expressed as a percentage of the number of such assays in which the compound was tested (-0 is zero)
Assay type: functional

| Compound | IFI [%] |
| --- | --- |
| Cc1cc(=NN=Cc2ccccc2Cl)c2cccc(C)c2[nH]1 | -0 |
| COc1ccccc1N1CCN(c2cccc3c2nc(-c2cncc(C#N)c2)n3CCNCc2ccccc2)CC1 | 3.45 |
| O=C(Nc1ccc(Cl)c(Cl)c1)N1CCC(CNCc2cccc([N+](=O)[O-])c2)CC1 | 1.46 |
| CCCCCCCCCN1CC[C@@H](CCCc2ccnc3ccc(O)cc23)[C@@H](CC)C1 | 15.2 |
| CCN1CCN(c2cc(C)c3cc(NC(=O)c4ccc(OC)c([N+](=O)[O-])c4)ccc3n2)CC1 | 5.22 |
| COc1ccc([N+](=O)[O-])cc1N(Cc1ccccc1-c1ccccc1)S(=O)(=O)c1ccc(C(F)(F)F)cc1 | 1.44 |
| O=C(/C=C/c1ccc(Cl)c(Cl)c1)NCCCCCN1CCC(NC(=O)Nc2ccc(C(F)(F)F)cc2)C1 (centres undefined) | 12 |
| CC(C)(C)c1ccc(OCC(=O)NC2CCN(c3ccnc4cc(Cl)ccc34)C2)cc1 (centres undefined) | 9.23 |
| O=C(Nc1cccc(-c2ccc(-c3nc4cc(C(F)(F)F)ccc4[nH]3)cc2)c1)c1c[nH]cn1 | 6.48 |
| O=C1c2ccccc2C(=O)N1c1ccc(S(=O)(=O)N2CCOCC2)cc1 | -0 |
| Oc1ccc(CCNc2nc(NCCCOc3ccccc3-c3ccc(C(F)(F)F)cc3)nc(N3CCNCC3)n2)cc1 | 17.2 |
| COc1ccc2nccc([C@@H](O)CN3CCC(NCc4cc5ccccc5s4)CC3)c2c1 | 2.84 |
| COc1ccc(CNCc2cccc(-c3cccc(-c4nc5cccc(C)c5[nH]4)c3)c2)cc1 | 9.62 |
| CCNc1cc(C)nc(Nc2ccc(NC(=O)Cc3ccc(OC)cc3)cc2)n1 | 13.5 |
| Cc1ccc(C)c(Cn2ccc3nc(Cl)nc(Cl)c32)c1 | 4.2 |
| O=C(Nc1cccc(-c2nn3ccccc3c2-c2ccnc(Nc3cccc(F)c3)n2)c1)c1c(F)ccc(F)c1F | 1.94 |
| O=C(NCc1ccc(F)cc1)c1cnc(N2CCN(c3ccncc3)CC2)c(Cl)c1 | -0 |
| CC(C)(C)c1ccc(CN2CCC(NC(=O)c3ccc(-c4cccc(Cl)c4)s3)CC2)cc1 | 12.1 |
| COc1ccc(-c2ccc(NC(=O)c3ccc(F)cc3)cc2)cc1CN1CCCN(C)CC1 | 2.97 |
| CC(C)(C)c1cc(C(=O)N2CCN(c3ncccc3C(F)(F)F)CC2)n(Cc2ccccc2)n1 | 1.54 |
| Cc1cc(Nc2ncc3c(n2)N(C2CCC2)CC3)ccc1N1CCN(C)CC1 | 11.1 |
| CC(C)c1ccc(NC(=O)c2ccc(CN3CCCN(Cc4cccc(Cl)c4)CC3)cc2)cc1 | 13.5 |
| CN(C)C1CCN(Cc2ccc(N3CCN(Cc4cccc5[nH]ccc45)CC3)nc2)CC1 | -0 |
| O=C(Nc1ccc(Cn2ncc(N3CCNCC3)c(Cl)c2=O)cc1)Nc1ccc(-c2ccccc2)cc1 | 6.85 |

Reference: ChEMBL document CHEMBL1157539, “Thousands of chemical starting points for antimalarial lead identification” (Nature, 2010)
